Measurements as given in article PMC6033463.

Biological target: apolipoprotein E4 (human) (UniProt P02649)
Assay: cross-linking; apoE4/POPC rHDL cross-linked with a large excess of BS3 (molar ratio BS3:apoE4 200:1), SDS-PAGE

apolipoprotein E4 (a stretch of the chain, chain not printed) (natural protein; other documents disagree on this pair)
stoichiometry N: 2
